Some of the results follow.
Experiments:
Test in all cases: glycan array binding signal (z-score within array); higher = stronger binding
Details in all cases: glycan notation: IUPAC condensed, linker removed
Kdn(a2-3)Gal(b1-4)Glc = biological target: Kdn(a2-3)Gal(b1-4)Glc
Outline: (§1)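 From the Consortium for Functional Glycomics database, 3228 arrays were curated, keeping only those whose protein sequence was available. Binding is given as a within-array Z-score averaged across arrays sharing a protein sequence and across linkers. Negative Z-scores can be read as non-binding.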

Kdn(a2-3)Gal(b1-4)GlcNAc = biological target: Kdn(a2-3)Gal(b1-4)GlcNAc
Outline: as §1

[1] = biological target: Kdn(a2-3)Gal(b1-4)[Fuc(a1-3)]GlcNAc
Outline: as §1

Kdn(a2-6)Gal(b1-4)GlcNAc = biological target: Kdn(a2-6)Gal(b1-4)GlcNAc
Outline: as §1

[2] = biological target: Man(a1-2)Man(a1-2)Man(a1-3)Man
Outline: as §1

[3] = biological target: Man(a1-2)Man(a1-2)Man(a1-6)[Man(a1-3)]Man
Outline: as §1

Man(a1-2)Man(a1-3)Man = biological target: Man(a1-2)Man(a1-3)Man
Outline: as §1

[4] = biological target: Man(a1-2)Man(a1-3)[Man(a1-2)Man(a1-6)]Man
Outline: as §1

[5] = biological target: Man(a1-2)Man(a1-3)[Man(a1-2)Man(a1-6)]Man(a1-6)[Man(a1-2)Man(a1-2)Man(a1-3)]Man
Outline: as §1

[6] = biological target: Man(a1-2)Man(a1-3)[Man(a1-2)Man(a1-6)]Man(a1-6)[Man(a1-2)Man(a1-2)Man(a1-3)]Man(b1-4)GlcNAc(b1-4)GlcNAc
Outline: as §1

[7] = biological target: Man(a1-2)Man(a1-3)[Man(a1-6)]Man(a1-6)[Man(a1-2)Man(a1-3)]Man(b1-4)GlcNAc(b1-4)GlcNAc
Outline: as §1

[8] = biological target: Man(a1-2)Man(a1-6)[Man(a1-3)]Man(a1-6)[Man(a1-2)Man(a1-2)Man(a1-3)]Man
Outline: as §1

[9] = biological target: Man(a1-2)Man(a1-6)[Man(a1-3)]Man(a1-6)[Man(a1-2)Man(a1-2)Man(a1-3)]Man(b1-4)GlcNAc(b1-4)GlcNAc
Outline: as §1

Man(a1-3)[Man(a1-6)]Man = biological target: Man(a1-3)[Man(a1-6)]Man
Outline: as §1

[10] = biological target: Man(a1-3)[Man(a1-6)]Man(a1-6)[Man(a1-2)Man(a1-3)]Man(b1-4)GlcNAc(b1-4)GlcNAc
Outline: as §1

[11] = biological target: Man(a1-3)[Man(a1-6)]Man(a1-6)[Man(a1-3)]Man
Outline: as §1

[12] = biological target: Man(a1-3)[Man(a1-6)]Man(a1-6)[Man(a1-3)]Man(b1-4)GlcNAc(b1-4)GlcNAc
Outline: as §1

[13] = biological target: Man(a1-3)[Man(a1-6)]Man(b1-4)GlcNAc(b1-4)GlcNAc
Outline: as §1

[14] = biological target: Man(a1-3)[Man(a1-6)]Man(b1-4)GlcNAc(b1-4)[Fuc(a1-6)]GlcNAc
Outline: as §1

Man(a1-6)Man = biological target: Man(a1-6)Man
Outline: as §1

Man(b1-4)GlcNAc = biological target: Man(b1-4)GlcNAc
Outline: as §1

MurNAc(b1-4)GlcNAc = biological target: MurNAc(b1-4)GlcNAc
Outline: as §1

Neu5Ac(a2-3)Gal = biological target: Neu5Ac(a2-3)Gal
Outline: as §1

[15] = biological target: Neu5Ac(a2-3)Gal(b1-3)GalNAc
Outline: as §1

[16] = biological target: Neu5Ac(a2-3)Gal(b1-3)GalNAc(b1-3)Gal(a1-4)Gal(b1-4)Glc
Outline: as §1

[17] = biological target: Neu5Ac(a2-3)Gal(b1-3)GalNAc(b1-4)[Neu5Ac(a2-3)]Gal(b1-4)Glc
Outline: as §1

[18] = biological target: Neu5Ac(a2-3)Gal(b1-3)GalNAc(b1-4)[Neu5Ac(a2-8)Neu5Ac(a2-3)]Gal(b1-4)Glc
Outline: as §1

[19] = biological target: Neu5Ac(a2-3)Gal(b1-3)GalNAc6S
Outline: as §1

[20] = biological target: Neu5Ac(a2-3)Gal(b1-3)GlcNAc
Outline: as §1

[21] = biological target: Neu5Ac(a2-3)Gal(b1-3)GlcNAc(b1-2)Man
Outline: as §1

[22] = biological target: Neu5Ac(a2-3)Gal(b1-3)GlcNAc(b1-2)Man(a1-3)[GlcNAc(b1-4)][Neu5Ac(a2-3)Gal(b1-3)GlcNAc(b1-2)Man(a1-6)]Man(b1-4)GlcNAc(b1-4)GlcNAc
Outline: as §1

[23] = biological target: Neu5Ac(a2-3)Gal(b1-3)GlcNAc(b1-2)Man(a1-3)[Neu5Ac(a2-3)Gal(b1-3)GlcNAc(b1-2)Man(a1-6)]Man(b1-4)GlcNAc(b1-4)GlcNAc
Outline: as §1

[24] = biological target: Neu5Ac(a2-3)Gal(b1-3)GlcNAc(b1-3)Gal(b1-3)GlcNAc
Outline: as §1

[25] = biological target: Neu5Ac(a2-3)Gal(b1-3)GlcNAc(b1-3)Gal(b1-4)GlcNAc
Outline: as §1

[26] = biological target: Neu5Ac(a2-3)Gal(b1-3)GlcNAc(b1-3)GalNAc
Outline: as §1

[27] = biological target: Neu5Ac(a2-3)Gal(b1-3)GlcNAc(b1-4)Gal(b1-4)Glc
Outline: as §1

[28] = biological target: Neu5Ac(a2-3)Gal(b1-3)GlcNAc(b1-6)GalNAc
Outline: as §1

[29] = biological target: Neu5Ac(a2-3)Gal(b1-3)GlcNAc6S
Outline: as §1

B1: Si Bti9 1b-V5-his (Solanum lycopersicum) (protein)
chain: MQCNRGCDLALASFYVWRGSNLTLISEMFSTSIADIVSYNNRDNIPNQDSVIAGTRINIPFRCDCLNDGEVLGHAFPYRVKSGDTYDLVARNYSDLTTAQWMMKFNSYPENNIPNTVNLSVVVNCSCGNSDVSKDFGLFVTYPVRAEDNLTSVASAANVSEDIIRRYNPAAVSILDIGQGIIYIPGRDRNGNFPPLPTSTDGLSGGAKKGGRADPAFLYKVVINSKLEGKPIPNPLLGLDSTRTGHHHHHH
Kdn(a2-3)Gal(b1-4)Glc
  glycan array binding signal (z-score): -0.32
Kdn(a2-3)Gal(b1-4)GlcNAc
  glycan array binding signal (z-score): -0.192
[1]
  glycan array binding signal (z-score): -0.19
Kdn(a2-6)Gal(b1-4)GlcNAc
  glycan array binding signal (z-score): 0.082
[2]
  glycan array binding signal (z-score): -0.329
[3]
  glycan array binding signal (z-score): -0.395
Man(a1-2)Man(a1-3)Man
  glycan array binding signal (z-score): -0.307
[4]
  glycan array binding signal (z-score): -0.309
[5]
  glycan array binding signal (z-score): -0.294
[6]
  glycan array binding signal (z-score): -0.367
[7]
  glycan array binding signal (z-score): 0.019
[8]
  glycan array binding signal (z-score): -0.131
[9]
  glycan array binding signal (z-score): 0.077
Man(a1-3)[Man(a1-6)]Man
  glycan array binding signal (z-score): -0.158
[10]
  glycan array binding signal (z-score): -0.003
[11]
  glycan array binding signal (z-score): -0.138
[12]
  glycan array binding signal (z-score): -0.257
[13]
  glycan array binding signal (z-score): -0.362
[14]
  glycan array binding signal (z-score): -0.189
Man(a1-6)Man
  glycan array binding signal (z-score): 5.02
Man(b1-4)GlcNAc
  glycan array binding signal (z-score): -0.182
MurNAc(b1-4)GlcNAc
  glycan array binding signal (z-score): -0.464
Neu5Ac(a2-3)Gal
  glycan array binding signal (z-score): -0.249
[15]
  glycan array binding signal (z-score): -0.303
[16]
  glycan array binding signal (z-score): -0.188
[17]
  glycan array binding signal (z-score): -0.251
[18]
  glycan array binding signal (z-score): 0.005
[19]
  glycan array binding signal (z-score): -0.251
[20]
  glycan array binding signal (z-score): -0.333
[21]
  glycan array binding signal (z-score): -0.149
[22]
  glycan array binding signal (z-score): -0.182
[23]
  glycan array binding signal (z-score): 0.033
[24]
  glycan array binding signal (z-score): -0.323
[25]
  glycan array binding signal (z-score): -0.317
[26]
  glycan array binding signal (z-score): -0.263
[27]
  glycan array binding signal (z-score): -0.223
[28]
  glycan array binding signal (z-score): 0.055
[29]
  glycan array binding signal (z-score): 0.024
